# Some of the results follow. Many values rest on one well or one pass, so single values are uncertain.
# Test system: MZ2-MEL
# Assay: cell count relative to DMSO control; melanoma cells; higher = more viable cells
# Conditions: library dose: low library concentration; 72 h
# 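Also: cell number obtained by counting DAPI-stained nuclei in high-throughput microscope images with image analysis software, screen run in 1,536-well plates.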
row,Compound,cell count [%]
1,"CO[C@H]1C[C@@H]2CC[C@@H](C)[C@@](O)(O2)C(=O)C(=O)N2CCCC[C@H]2C(=O)O[C@H]([C@H](C)C[C@@H]2CC[C@@H](OCCO)[C@H](OC)C2)CC(=O)[C@H](C)/C=C(\C)[C@@H](O)[C@@H](OC)C(=O)[C@H](C)C[C@H](C)/C=C/C=C/C=C/1C [everolimus] + CS(=O)(=O)CCNCc1ccc(-c2ccc3ncnc(Nc4ccc(OCc5cccc(F)c5)c(Cl)c4)c3c2)o1 [lapatinib] (first compound 0.02 µM, partner dose 0.8 µM)",79.3
2,"CO[C@H]1C[C@@H]2CC[C@@H](C)[C@@](O)(O2)C(=O)C(=O)N2CCCC[C@H]2C(=O)O[C@H]([C@H](C)C[C@@H]2CC[C@@H](OCCO)[C@H](OC)C2)CC(=O)[C@H](C)/C=C(\C)[C@@H](O)[C@@H](OC)C(=O)[C@H](C)C[C@H](C)/C=C/C=C/C=C/1C [everolimus] + O=C(O)c1ccc2c(c1)nc(Nc1cccc(Cl)c1)c1ccncc12 [CX4945] (first compound 0.02 µM, partner dose 0.4 µM)",76.3
3,"CO[C@H]1C[C@@H]2CC[C@@H](C)[C@@](O)(O2)C(=O)C(=O)N2CCCC[C@H]2C(=O)O[C@H]([C@H](C)C[C@@H]2CC[C@@H](OCCO)[C@H](OC)C2)CC(=O)[C@H](C)/C=C(\C)[C@@H](O)[C@@H](OC)C(=O)[C@H](C)C[C@H](C)/C=C/C=C/C=C/1C [everolimus] + Clc1ccc(Nc2nnc(Cc3ccncc3)c3ccccc23)cc1 [vatalanib] (first compound 0.02 µM, partner dose 2 µM)",73.9
4,"CO[C@H]1C[C@@H]2CC[C@@H](C)[C@@](O)(O2)C(=O)C(=O)N2CCCC[C@H]2C(=O)O[C@H]([C@H](C)C[C@@H]2CC[C@@H](OCCO)[C@H](OC)C2)CC(=O)[C@H](C)/C=C(\C)[C@@H](O)[C@@H](OC)C(=O)[C@H](C)C[C@H](C)/C=C/C=C/C=C/1C [everolimus] + CNC(=O)c1cc(Oc2ccc(NC(=O)Nc3ccc(Cl)c(C(F)(F)F)c3)cc2)ccn1 [sorafenib] (first compound 0.02 µM, partner dose 0.4 µM)",67.8
5,"CO[C@H]1C[C@@H]2CC[C@@H](C)[C@@](O)(O2)C(=O)C(=O)N2CCCC[C@H]2C(=O)O[C@H]([C@H](C)C[C@@H]2CC[C@@H](OCCO)[C@H](OC)C2)CC(=O)[C@H](C)/C=C(\C)[C@@H](O)[C@@H](OC)C(=O)[C@H](C)C[C@H](C)/C=C/C=C/C=C/1C [everolimus] + Cn1nnc2c(C(N)=O)ncn2c1=O [temozolomide] (first compound 0.02 µM, partner dose 2 µM)",74.9
6,"CO[C@H]1C[C@@H]2CC[C@@H](C)[C@@](O)(O2)C(=O)C(=O)N2CCCC[C@H]2C(=O)O[C@H]([C@H](C)C[C@@H]2CC[C@@H](OCCO)[C@H](OC)C2)CC(=O)[C@H](C)/C=C(\C)[C@@H](O)[C@@H](OC)C(=O)[C@H](C)C[C@H](C)/C=C/C=C/C=C/1C [everolimus] + OCc1c[nH]c2ccccc12 [Indole-3-carbinol] (first compound 0.02 µM, partner dose 0.8 µM)",79.5

# Test system: MeWo
# Assay: as above
# Conditions: library dose: low library concentration; 72 h
row,Compound,cell count [%]
1,"Nc1ccn([C@@H]2O[C@H](CO)[C@@H](O)C2(F)F)c(=O)n1 [gemcitabine] + O=C(CCCCCCC(=O)Nc1ccccc1)NO [vorinostat] (first compound 0.0004 µM, partner dose 0.08 µM)",105
2,"Nc1nc(F)nc2c1ncn2[C@@H]1O[C@H](CO)[C@@H](O)[C@@H]1O [fludarabine] + Oc1nc(-c2ccc(C(F)(F)F)cc2)nc2c1CSCC2 [XAV939] (first compound 0.2 µM, partner dose 2 µM)",31.3
3,"Nc1ccn([C@@H]2O[C@H](CO)[C@@H](O)C2(F)F)c(=O)n1 [gemcitabine] + O=C(Nc1ccccc1)c1cc([N+](=O)[O-])ccc1Cl [GW9662] (first compound 0.0004 µM, partner dose 2 µM)",99.2
4,"CO[C@H]1C[C@@H]2CC[C@@H](C)[C@@](O)(O2)C(=O)C(=O)N2CCCC[C@H]2C(=O)O[C@H]([C@H](C)C[C@@H]2CC[C@@H](OCCO)[C@H](OC)C2)CC(=O)[C@H](C)/C=C(\C)[C@@H](O)[C@@H](OC)C(=O)[C@H](C)C[C@H](C)/C=C/C=C/C=C/1C [everolimus] + COc1ccc(Cl)c(Nc2nc3ccccc3nc2NS(=O)(=O)c2cccc(NC(=O)C(C)(C)N)c2)c1 [XL147] (first compound 0.02 µM, partner dose 0.8 µM)",64.6
5,"Nc1ccn([C@@H]2O[C@H](CO)[C@@H](O)C2(F)F)c(=O)n1 [gemcitabine] + C#Cc1cccc(Nc2ncnc3cc(OCCOC)c(OCCOC)cc23)c1 [erlotinib] (first compound 0.0004 µM, partner dose 0.8 µM)",87.6
6,"CO[C@H]1C[C@@H]2CC[C@@H](C)[C@@](O)(O2)C(=O)C(=O)N2CCCC[C@H]2C(=O)O[C@H]([C@H](C)C[C@@H]2CC[C@@H](OCCO)[C@H](OC)C2)CC(=O)[C@H](C)/C=C(\C)[C@@H](O)[C@@H](OC)C(=O)[C@H](C)C[C@H](C)/C=C/C=C/C=C/1C [everolimus] + CN(C)S(=O)(=O)c1ccc2c(c1)/C(=C/c1cc3c([nH]1)CCCC3)C(=O)N2 [SU6656] (first compound 0.02 µM, partner dose 0.4 µM)",68.3
7,"CO[C@H]1C[C@@H]2CC[C@@H](C)[C@@](O)(O2)C(=O)C(=O)N2CCCC[C@H]2C(=O)O[C@H]([C@H](C)C[C@@H]2CC[C@@H](OCCO)[C@H](OC)C2)CC(=O)[C@H](C)/C=C(\C)[C@@H](O)[C@@H](OC)C(=O)[C@H](C)C[C@H](C)/C=C/C=C/C=C/1C [everolimus] + Nc1nc(F)nc2c1ncn2[C@@H]1O[C@H](CO)[C@@H](O)[C@@H]1O [fludarabine] (first compound 0.02 µM, partner dose 0.2 µM)",35.5
8,"CO[C@H]1C[C@@H]2CC[C@@H](C)[C@@](O)(O2)C(=O)C(=O)N2CCCC[C@H]2C(=O)O[C@H]([C@H](C)C[C@@H]2CC[C@@H](OCCO)[C@H](OC)C2)CC(=O)[C@H](C)/C=C(\C)[C@@H](O)[C@@H](OC)C(=O)[C@H](C)C[C@H](C)/C=C/C=C/C=C/1C [everolimus] + CC(=O)c1c(C)c2cnc(Nc3ccc(N4CCNCC4)cn3)nc2n(C2CCCC2)c1=O [palbociclib] (first compound 0.02 µM, partner dose 0.04 µM)",66
9,"CC(=O)O[C@@]12CO[C@@H]1C[C@H](O)[C@@]1(C)C(=O)[C@H](O)C3=C(C)[C@@H](OC(=O)[C@H](O)[C@@H](NC(=O)OC(C)(C)C)c4ccccc4)C[C@@](O)([C@@H](OC(=O)c4ccccc4)[C@H]21)C3(C)C [Docetaxel] + CC(C)C[C@H](NC(=O)[C@H](Cc1ccccc1)NC(=O)c1cnccn1)B(O)O [Bortezomib] (first compound 0.0001 µM, partner dose 0.001 µM)",38.7
10,"CO[C@H]1C[C@@H]2CC[C@@H](C)[C@@](O)(O2)C(=O)C(=O)N2CCCC[C@H]2C(=O)O[C@H]([C@H](C)C[C@@H]2CC[C@@H](OCCO)[C@H](OC)C2)CC(=O)[C@H](C)/C=C(\C)[C@@H](O)[C@@H](OC)C(=O)[C@H](C)C[C@H](C)/C=C/C=C/C=C/1C [everolimus] + Nc1ncn([C@H]2C[C@H](O)[C@@H](CO)O2)c(=O)n1 [decitabine] (first compound 0.02 µM, partner dose 0.1 µM)",75.1
11,"CC(=O)O[C@@]12CO[C@@H]1C[C@H](O)[C@@]1(C)C(=O)[C@H](O)C3=C(C)[C@@H](OC(=O)[C@H](O)[C@@H](NC(=O)OC(C)(C)C)c4ccccc4)C[C@@](O)([C@@H](OC(=O)c4ccccc4)[C@H]21)C3(C)C [Docetaxel] + O=C(O)c1ccc2c(c1)nc(Nc1cccc(Cl)c1)c1ccncc12 [CX4945] (first compound 0.0001 µM, partner dose 0.4 µM)",51.2
12,"Nc1ccn([C@@H]2O[C@H](CO)[C@@H](O)C2(F)F)c(=O)n1 [gemcitabine] + Cn1cc(/C=C2\C(=O)Nc3cccnc32)c2ccccc21 [GW441756] (first compound 0.0004 µM, partner dose 0.4 µM)",113
13,"CO[C@H]1C[C@@H]2CC[C@@H](C)[C@@](O)(O2)C(=O)C(=O)N2CCCC[C@H]2C(=O)O[C@H]([C@H](C)C[C@@H]2CC[C@@H](OCCO)[C@H](OC)C2)CC(=O)[C@H](C)/C=C(\C)[C@@H](O)[C@@H](OC)C(=O)[C@H](C)C[C@H](C)/C=C/C=C/C=C/1C [everolimus] + OCCn1cc(-c2cnc3nnn(Cc4ccc5ncccc5c4)c3n2)cn1 [PF04217903] (first compound 0.02 µM, partner dose 1 µM)",78
14,"CC(=O)O[C@@]12CO[C@@H]1C[C@H](O)[C@@]1(C)C(=O)[C@H](O)C3=C(C)[C@@H](OC(=O)[C@H](O)[C@@H](NC(=O)OC(C)(C)C)c4ccccc4)C[C@@](O)([C@@H](OC(=O)c4ccccc4)[C@H]21)C3(C)C [Docetaxel] + Cc1cc([N+](=O)[O-])ccc1NS(=O)(=O)c1cc(Cl)ccc1Cl [FH535] (first compound 0.0001 µM, partner dose 1 µM)",50.4
